Measured values as given in the supplement of paper PMC11417369.
± gives the standard deviation of the averaged measurements. The list shows a part of the results.

tested on: PfAP2-EXP AP2 domain (GST-tagged); assay: gcPBM binding intensity (ln(normalized median fluorescence intensity)); higher = stronger DNA binding
Method in brief: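 The binding buffer was 1× PBS containing 1% milk, 0.2 mg/ml BSA, 0.5% salmon testes DNA and 0.03% Triton X-100. In it, GST-tagged P. falciparum DNA-binding domains expressed in E. coli were applied for 1 h to an Agilent 4 × 180k array of primer-extended double-stranded 36-bp intergenic genomic probes plus negative controls. Binding intensity, read with Alexa488 anti-GST antibody and a 488 nm scan, is the highest Masliner-normalised natural-log median intensity across replicate spots of either probe orientation.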

Sequence	gcPBM binding intensity (ln)
TGAATAAATCAAAGCACACATACACCCACATATATA [CACACA_site286]	8.78 ± 0.49
ACATAATAAAAATAAATTCATAAGTAAATAAATAAA [TGCATGCA_negctrl_site186]	8.34 ± 0.44
CTAAAAAATAGTAAAAGTACATAAATAATTTTGCTT [XGTACX_site8919]	8.28 ± 0.32
ACAATTATTTTGTTCTTTAATGGTAGGTTCTATGTC [CACACA_negctrl_site1419]	8.51 ± 0.39
TTACACATGTTTAACTGTACACATAATAGCAATATT [XGTACX_site8545]	8.98 ± 0.42
AATACACGCAGACACACACACACACGCACATATATA [CACACA_site6447]	8.79 ± 0.53
CATAAATTACTTTTTACACACTAAAATAAAATACAA [CACACA_site1135]	8.44 ± 0.47
AAAAAAAAAAAAAAAAAAAAAAAAAAAGATTATGAG [CACACA_negctrl_site1088]	8.93 ± 0.085
TATAAAATACTGTATCGATGGGGGAGGGCGCAGGGG [TGCATGCA_negctrl_site250]	10.3 ± 0.11
TCAAATGTATATAATTGTACTTATCCTTTTCATTTT [XGTACX_site4879]	8.59 ± 0.42
AAAAATTAGAAACACACACACATATATATATATATT [CACACA_site1042]	8.71 ± 0.22
TTTTAAGTTTTTGAATGTACGTAATTTGTAAATTCT [XGTACX_site2448]	8.21 ± 0.23
TTACTTGTTTATTTTTTTTTTTTTTTTTTTTTTGTT [TGCATGCA_negctrl_site103]	8.06 ± 0.77
TAATGGAGAAAATAATGTACTTAGATATTTGTTCTA [XGTACX_site6312]	8.16 ± 0.36
TTTAAATATTTTATAGCATGCTACCAATATGTATAT [TGCATGCA_site291]	8.86 ± 0.33
AAGAACAAACAAAATAGTACAATATATATATATATA [XGTACX_site4258]	10 ± 0.28
AACTATAATTAAAGGATGCACTTGAAGGCATTTCAA [GTGCAC_site9689]	8.34 ± 0.35
TATTCATAACAATGATGTACATATATTTTTTTTTTC [XGTACX_site5619]	8.4 ± 0.47
CATATATAGATATATACACACATATAGATTTTCTTT [CACACA_site6797]	8.31 ± 0.38
GACATATATAGCAATCGTACATATATTATAAAAGGT [XGTACX_site6891]	9.32 ± 0.6
CGTTTGGTACACGTAGTGTTTTCGTTTGAATGTACC [GTGCAC_negctrl_site201]	8.7 ± 0.36
TTTAATTTTCCCTTCACACATAATATATATCTGTAT [CACACA_site5370]	8.7 ± 0.43

Sequence	gcPBM binding intensity (ln)
TTTAATCAATGATTTAATGAAAAAAGCAAAAAAAAA [GTGCAC_negctrl_site213]	8.38 ± 0.45
AAAAGGAACAGACACACACACATATATAAATATGTA [CACACA_site7656]	8.4 ± 0.59
AAATAGACATAAAAAGGTACACAAATTGTGTATTAA [XGTACX_site527]	8.68 ± 0.36
TAACACTTTTTTTTTCGTACATATATTATATATATA [XGTACX_site5470]	8.91 ± 0.26
TTTTTTTATATTATACGCACTAATATATATATATAT [XGTACX_negctrl_site40]	9.95 ± 0.3
TTTTTATTAGGACATGCATACAAAATTAAAAAAAAT [TGCATGCA_site258]	8.87 ± 0.4
ATATATATATTTAAGGTGCGATTTTGTTATATTTAA	9.22
CTTATTTTATGTTATACACACAAAGAAAAAAAATAA [CACACA_site2165]	8.65 ± 0.52
AATTATATTAATATATAATAAAATAGGATGTTATTT [XGTACX_negctrl_site309]	8.26 ± 0.47
GTATATAATTTATGTGCACACACTCCTATTTTTAGC [CACACA_site49]	9.12 ± 0.11
TTATTAAAATATTAAAGTACAAAAAAAATAAATAAA [XGTACX_site6507]	8.63 ± 0.38
TTATGTATATTATAAATTAATACATTTAAATTAATA [CACACA_negctrl_site34]	7.83 ± 0.5
TATTAATTTATTTGTTGTACGTAAATATGCTTGTTT [XGTACX_site6591]	8.75 ± 0.41
AAAAAAAAAAAAAATTGTACCCAAATATTTTTGTAG [XGTACX_site8303]	8.34 ± 0.43
TATATGTGATAACACGCACACAAATGTATATAATTT [CACACA_site2593]	8.56 ± 0.38
ATAAAATAAAAATTCTGTACAGAATTAAAAAAATAT [XGTACX_site6961]	8.84 ± 0.35
AAAAAAAAAAAACATACACACATTGAACTTTTATAT [CACACA_site3250]	8.26 ± 0.52
TGTAGCATTTAATTCACACATAAAAAATGTATCCAT [CACACA_site4986]	8.27 ± 0.4
AAAAAAAGTAAAAAGTGTACTTAATATATATATATA [XGTACX_site838]	9.91 ± 0.45
TACAATATACCTACTTGTACACAAAATAAAAGTAGT [XGTACX_site6029]	8.61 ± 0.2
TTTTATATAAATATCACACACACACGCATGTTTTAA [CACACA_site6187]	8.63 ± 0.38
TACACACCTAACTATGCATGCATCAATATAGTGGAT [TGCATGCA_site443]	9.72 ± 0.4

Sequence	gcPBM binding intensity (ln)
TATTCATGCATATACACACACATATATATATATTTT [CACACA_site3955]	8.9 ± 0.45
ATCATAATTTATTATACACACAATACGTGACCTATT [CACACA_site6977]	8.63 ± 0.36
AATGAAAAATTGTAATGTACATAAATAAATAAATAA [XGTACX_site4048]	9.09 ± 0.3
AAAAAAAAATTAAACATACACACGTTACTATTTTTA [CACACA_site1687]	8.07 ± 0.42
ATGAACATGTGACAATGTACATTTATATCTTAAGAA [XGTACX_site4960]	8.66 ± 0.41
ATAATATATATATATATGTATGTATATATGTATGTA [GTGCAC_negctrl_site575]	8.4 ± 0.39
TACACCCAGAAATGCACACACATATATATATATATA [CACACA_site5289]	9.98 ± 0.35
TATATATATATAATAGCATGCTATATTATATATATA [TGCATGCA_site886]	9.64 ± 0.13
TATTCTTATTATTACACACACAATTATATTTACCCC [CACACA_site6381]	9.14 ± 0.66
TATTTTTTAATTGTTTCACACATTATTTTTTACATA [CACACA_site6078]	8.63 ± 0.4
TTAACATAAATTGTGTCATTTTTTTTTTTTTTTTTA [CACACA_negctrl_site1221]	8.03 ± 0.54
CTAATAAAAAAAAAAAGTACATATGACAATATAAAG [XGTACX_site1598]	8.95 ± 0.52
AATTTTTTTTTCTTTTGTACGTAAATATGTGTAGGC [XGTACX_site215]	8.72 ± 0.38
TTAACACATTTTATGTGTACTCATATGATTTAAAAT [XGTACX_site7516]	8.45 ± 0.25
TTAAAATGAAGAAGTGCACACATATATATATTTATA [CACACA_site8063]	9.06 ± 0.26
TATATATTAGTGTTGACACACACAAAAAAAAAAAAA [CACACA_site8392]	8.53 ± 0.45
TATAAACAGACGAAAACACACATATGTAGATATATA [CACACA_site6371]	8.94 ± 0.55
TTATAAATGTGCGTAGTGCATAAACAAAAAAAAAAT	9.31 ± 0.014
ATTTTTTTTTTTTTTTTTTTTTTTTATGAATGTTAT [CACACA_negctrl_site1319]	7.92 ± 0.54
ATCAGGCAAAATTTTTGTACATATATATTTTATTTT [XGTACX_site1245]	9.12 ± 0.61
ATTTTTTTTTTTTTTTTTTTTTTTTTTTTTTTTTTT [CACACA_negctrl_site1364]	9.04 ± 0.56
AGATTTCAAGGTAATAGATCAATTTTAATTTGTAAA [CACACA_negctrl_site514]	7.97 ± 0.42

Sequence	gcPBM binding intensity (ln)
TGTATAAAAAACTAATGTACAAATGACAAGATATCT [XGTACX_site4600]	8.7 ± 0.66
AATGCACAGCTCTTAGGCAAAAGTGGGTATTTACAC [GTGCAC_negctrl_site579]	8.81 ± 0.28
CATTTAGTTCATACTATGCACACTACGTATATTTTT [CACACA_site2694]	8.98 ± 0.26
ATTTAATACAAATACACACACAAATATGTACCTATA [CACACA_site7718]	8.51 ± 0.35
ACAATTCATTAGAATTGTACAAAAGGATGAAGCGAA [XGTACX_site5242]	9.1 ± 0.43
ATTTTTTTTTTTTAATTTGATATTTGCGTTTATATA [CACACA_negctrl_site1305]	8.45 ± 0.56
AATATATGATAATTTTTTTTTTTTTTTTTTAAATAT [CACACA_negctrl_site452]	7.88 ± 0.6
AACAATTGTTAAAGGTGTACCATATGTATATAAGAA [XGTACX_site5723]	9.04 ± 0.54
AGACGTAATAATTGTTGTACATAAAAAAATAAGAAA [XGTACX_site7594]	8.9 ± 0.28
AAAAAATGTTAAAAAAGTACTTTCTTTATTTAATAA [XGTACX_site2908]	8.07 ± 0.4
ATGATATTATAAAAAAGTACATATGTATATAATTAT [XGTACX_site7652]	8.88 ± 0.45
TGTGTTAGCAAAAAAGTGCACAGGGAAAAAAAAATA [GTGCAC_site9397]	9.24 ± 0.29
TAAACCTATTATACGGGTACTTATTTGATTCTTATA [XGTACX_site5292]	8.38 ± 0.44
ACAAATGGAACTCCTACAAAAAATTTCCATAATATT [XGTACX_negctrl_site132]	8.2 ± 0.38
AAAAGCTTAAAAAATTGTACATAAATGAATAAATAT [XGTACX_site5201]	8.69 ± 0.31
AAAAATAAAACAATTACACACATAACTTTATTTTTA [CACACA_site6563]	8.39 ± 0.45
GAACTCATTTAATATTGTACATTCTGATATTTTTTA [XGTACX_site5995]	8.68 ± 0.45
ACCACCATATAACATACATGCATCTTTTTTCCCTTC [TGCATGCA_site583]	9.33 ± 0.33
TATATACATACATATACACACATATATATATATATA [CACACA_site401]	10.1 ± 0.28
TCATTGTTTAATATGTGTCCTCAAAATTTGTTATAT [XGTACX_site677]	8.71 ± 0.29
GTATAAAATATTGATTGTACTTTATTCATTTTTTTT [XGTACX_site2520]	8.37 ± 0.3
TCATATTCCAAGTGTACACATAAATCCCTAATAACA [CACACA_site5167]	8.9 ± 0.74
